Measurements taken from PubChem BioAssay AID2675 (National Center for Advancing Translational Sciences (NCATS), 2010).
The whole screen tested about 280,000 compounds, of which about 100 (0.036%) were called active. The shares of active, inactive and inconclusive entries below differ from those in the screen. The call rests on the fitted dose curve; in most records, active means well fitted inhibition curve with a large enough effect in the signal ratio, with a control signal flat (not every such curve was filed as active); inconclusive means small, poorly fitted or top-dose-only effect, or effect the other way, or a change in a side signal; inactive means no such curve, though single readings can be large or run the other way; the % refers to the signal ratio. Potencies beside an inconclusive call are fits to weak or partial responses and may not hold up. A note “side channel” means that the fit belongs to a control or component signal, not to the main read-out.

Biological target: Muscleblind-like protein 1 (Homo sapiens) (UniProt Q9NR56)
Chain of UniProt Q9NR56 (Q9NR56 whole entry, looked up): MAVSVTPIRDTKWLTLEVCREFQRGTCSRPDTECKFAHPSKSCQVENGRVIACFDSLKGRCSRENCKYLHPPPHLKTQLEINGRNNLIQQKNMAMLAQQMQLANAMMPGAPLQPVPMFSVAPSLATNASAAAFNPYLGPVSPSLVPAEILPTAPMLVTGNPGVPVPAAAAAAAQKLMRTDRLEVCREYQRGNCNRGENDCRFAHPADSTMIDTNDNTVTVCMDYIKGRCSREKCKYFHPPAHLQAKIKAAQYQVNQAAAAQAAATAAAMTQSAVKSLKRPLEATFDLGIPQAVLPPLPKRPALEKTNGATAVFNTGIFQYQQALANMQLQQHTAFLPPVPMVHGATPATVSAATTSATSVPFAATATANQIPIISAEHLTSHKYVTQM
Assay: qHTS Assay for Inhibitors of MBNL1-poly(CUG) RNA binding
Settings: TR-FRET MBNL1-His/biotin-(CUG)12 binding, 665/545 ratio; activity change, negative = inhibition: at 57.5 µM (top of the series)
In short: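 His-tagged MBNL1 binding to biotinylated (CUG)12 RNA was measured by TR-FRET using terbium anti-His antibody (0.055 ng/ul final) and streptavidin-XL665 (5 nM final). Compounds were titrated 92 nM to 58 uM; 60 min at room temperature.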
On the % scale 0 is the no-effect control and ±100 the full control effect; potency means the concentration at half of the fitted maximal effect; tags describe the fitted curve by direction and shape or compound fluorescence and quenching.

SMILES	Potency	activity change, negative = inhibition
CN(C)C(CNC(=O)c1ccc2c(c1)S(=O)(=O)c1ccccc1C2=O)c1ccco1 (configuration not stated)	inconclusive: 2.82 µM [quencher, side channel, full curve]	
O=[N+]([O-])c1cc(/C=N/O)ccc1Sc1ccccc1	inconclusive: 15.8 µM [quencher, side channel, partial curve]	
O=C(NC1CCS(=O)(=O)C1)/C(=C/c1ccco1)NC(=O)c1ccccc1 (configuration not stated)	inconclusive: 20 µM [quencher, side channel, partial curve]	
O=S(=O)(c1ccc2c(c1)C(=NO)c1cc(S(=O)(=O)N3CCCCC3)ccc1-2)N1CCCCC1	inactive	
CCC(=O)OCCn1c(=O)c2cc3c(=O)n(CCOC(=O)CC)c(=O)c3cc2c1=O	inconclusive: 2.51 µM [quencher, side channel, partial curve, poor fit]	
CN1CCN(CCc2nc3cc(NC(=O)COc4ccc([N+](=O)[O-])cc4)ccc3n2C)CC1	inconclusive: 25.1 µM [quencher, partial curve]	
CN1CCc2nc(SCC(=O)Nc3cccc(F)c3)c(C#N)c(-c3cccs3)c2C1	inconclusive: 11.2 µM [quencher, side channel, partial curve]	
CC(=O)N1CCN(c2nc(-c3cccs3)nc3ccccc23)CC1	inconclusive: 22.4 µM [quencher, side channel, partial curve]	
O=c1c(-c2ccc(F)cc2)[n+]([O-])c2ccccc2n1OCc1ccccn1	inconclusive: 2.51 µM [quencher, side channel, full curve, poor fit]	
O=S(=O)([N-]c1nc2ccccc2nc1-[n+]1ccccc1)c1ccccc1	inconclusive: 2.82 µM [quencher, side channel, single point]	
CCCOc1ccc2cc(-c3ccccn3)c(=O)oc2c1	inconclusive: 12.6 µM [quencher, side channel, partial curve]	
CCN(C(=O)COC(=O)c1cc(OC)c(OC)cc1[N+](=O)[O-])C1CCS(=O)(=O)C1 (configuration not stated)	inconclusive: 28.2 µM [quencher, side channel, partial curve]	
CN(Cc1cccc2cnccc12)C(=O)CCc1nnc(CCc2ccccc2)o1	inactive	
COCCN=C1Sc2nc3cc4c(cc3cc2CN1CC1CCCO1)OCO4 (configuration not stated)	inconclusive: 39.8 µM [fluorescent, single point]	
O=[N+]([O-])c1ccc(S(=O)(=O)NCC2CC3CCC2C3)cc1 (configuration not stated)	inconclusive: 22.4 µM [quencher, side channel, partial curve]	
CC1=NN(c2cccc(C(=O)O)c2)C(=O)/C1=C\C=C/c1ccccc1	inactive	
Cc1ccccc1C(=O)N/C(=C/c1ccc(-c2cccnc2Cl)o1)C(=O)NCCCN1CCN(C)CC1	inconclusive: 20 µM [quencher, side channel, partial curve]	
COc1cc(/C=N/NC(N)=O)cc([N+](=O)[O-])c1O	inconclusive: 11.2 µM [quencher, side channel, partial curve]	
CCNC(=S)N/N=C/c1ccc(C(=O)O)cc1	inactive	
O=C(N/N=C/c1cc([N+](=O)[O-])ccc1O)C1C2CCCCC21 (configuration not stated)	inactive	
COc1ccc(NC(=O)C2CCCN(S(=O)(=O)c3cccc4nonc34)C2)c(OC)c1 (configuration not stated)	inconclusive: 3.16 µM [quencher, side channel, partial curve]	

SMILES	Potency	activity change, negative = inhibition
Cc1ccc(C(=O)OCC(=O)Nc2c(C)n(C)n(-c3ccccc3)c2=O)cc1[N+](=O)[O-]	inconclusive: 28.2 µM [quencher, side channel, single point]	
Cc1ccc2[nH]c3c(c2c1)CN(C)CC3	inconclusive: 39.8 µM [quencher, side channel, single point]	
Cc1cc(N2CCOCC2)nc2ccc(NC(=S)NCc3ccc4c(c3)OCO4)cc12	inactive	
Cc1cc([N+](=O)[O-])ccc1NC(=O)C(C)[n+]1ccccc1 (configuration not stated)	inconclusive: 17.8 µM [quencher, partial curve]	
COc1ccc(CCNC(=O)c2ccn[nH]2)cc1OC	inactive	
CC1=Nc2ccc(C)cc2/C1=C/c1c(N)n2c(S(=O)(=O)C(C)C)nsc2nc1=O	inconclusive: 39.8 µM [quencher, side channel, single point]	
CC(=O)c1ccc(COC(=O)Cc2ccc([N+](=O)[O-])cc2)cc1	inconclusive: 12.6 µM [quencher, side channel, partial curve]	
COc1cc([N+](=O)[O-])ccc1N1C(=O)CC(Sc2nccc(C)n2)C1=O (configuration not stated)	inconclusive: 11.2 µM [quencher, side channel, partial curve]	
CC(C)CN1C(=O)/C(=C/c2ccco2)NC1=S		inactive: -13% [at 11.5 µM]
COC(=O)c1c(-c2ccccc2)csc1N	inactive	
O=C(COC(=O)/C=C/c1cccs1)Nc1cccc(S(=O)(=O)N2CCOCC2)c1	inconclusive: 28.2 µM [quencher, side channel, single point]	
O=C(/C=C/c1ccc(O)c(O)c1)OC(Cc1ccc(O)c(O)c1)C(=O)O (configuration not stated)	inconclusive: 28.2 µM [quencher, side channel, partial curve]	
O=C1Nc2ccc(Br)cc2/C1=C/C(=O)c1ccc2c(c1)OCO2	inactive	
CCSc1nnc2c(n1)OC=Nc1ccc(Br)cc1-2	inconclusive: 28.2 µM [quencher, side channel, single point]	
O=C(Nc1cccc(-c2nc3ccccc3s2)c1)c1cc(=O)c2ccccc2o1	inactive	
C=CCC(Nc1ccccc1)C12C=CC(O1)C(C(=O)OC)=C2C(=O)OC (configuration not stated)	inactive	
COc1ccc(C2/C=C\CN(S(=O)(=O)c3ccc(C)cc3)[C@H](Cc3ccccc3)C(=O)N2Cc2ccc(F)cc2)cc1 (some centres not stated)	inactive	
CCOCCCN(C)C1CCN(C(=O)c2oc3ccccc3c2NC(=O)c2ccc(F)cc2)CC1	inactive	
CCCN(CCC)C(=O)CSc1nc2ccccc2c(=O)n1C1CCCC1	inconclusive: 3.55 µM [quencher, side channel, single point]	
Cc1ccc(N(CC(=O)NCc2ccco2)C(=O)CCC(=O)Nc2ccccn2)c(C)c1	inactive	
CCOC(=O)c1c[nH]c2c(C(F)(F)F)cccc2c1=O	inactive	

SMILES	Potency	activity change, negative = inhibition
COc1ccc(N2CCN(CC(O)COCCOc3ccc(Br)cc3)CC2)cc1 (configuration not stated)	inactive	
O=C(CCCC(=O)c1ccccc1)Nc1ccc(F)cc1	inactive	
O=c1[nH]n2c(=O)c3c([nH]c2c1N=Nc1ccccc1)CCC3	inconclusive: 14.1 µM [quencher, side channel, partial curve]	
O=C(c1ccc(F)cc1)N1CCN(C(=O)c2ccc([N+](=O)[O-])cc2)CC1	inconclusive: 3.16 µM [quencher, side channel, full curve]	
COCCn1nnnc1CN(Cc1cc2cc(OC)c(OC)cc2[nH]c1=O)C1CCCC1	inconclusive: 28.2 µM [quencher, side channel, partial curve]	
O=C(Nc1c[nH]c(=O)[nH]c1=O)c1cccc([N+](=O)[O-])c1	inconclusive: 14.1 µM [quencher, partial curve]	
COc1cc(/C=C/[N+](=O)[O-])ccc1OC(=O)c1cc2ccccc2oc1=O	inconclusive: 15.8 µM [quencher, side channel, partial curve]	
Cc1nn(-c2cc(N3CCCCC3)ccc2[N+](=O)[O-])c(=O)c2ccccc12	inconclusive: 2.51 µM [quencher, side channel, full curve, poor fit]	
CCOc1ccc(S(=O)(=O)NCCC(=O)NCC(c2cccs2)N2CCOCC2)cc1 (configuration not stated)	inactive	
Cc1ccc(C(=O)N/N=C/c2c[nH]c3ccccc23)o1	inconclusive: 22.4 µM [quencher, side channel, partial curve, poor fit]	
O=C(N/C(=C/c1ccc(Br)cc1)C(=O)N1CCCC1)c1ccccc1F	inactive	
COc1cc2c(cc1OC)CN(c1ccc([N+](=O)[O-])cc1Cl)CC2	inconclusive: 12.6 µM [quencher, side channel, partial curve]	
CCC(CC)NC(=O)c1cccc(NC(=O)C(C)C)c1	inconclusive: 28.2 µM [quencher, side channel, single point]	
O=[N+]([O-])c1cccc(-c2n[nH]c(=S)n2Cc2ccccc2)c1	inconclusive: 15.8 µM [quencher, single point]	
O=C(NCCc1ccc(F)cc1)c1cc2ccccc2oc1=O	inactive	
O=C(COc1ccc([N+](=O)[O-])cc1)NC(C(=O)O)C(O)c1cccc([N+](=O)[O-])c1 (configuration not stated)	inconclusive: 11.2 µM [quencher, side channel, partial curve]	
O=C(O)CSc1nc(SCc2ccccc2Cl)nc2c1CCCC2	inconclusive: 7.08 µM [quencher, side channel, single point]	
O=[N+]([O-])c1ccc(N2CCSCC2)cc1	inconclusive: 14.1 µM [quencher, side channel, partial curve]	
COc1ccccc1CN(Cc1cc2cc3c(cc2[nH]c1=O)OCCO3)Cc1nnnn1Cc1ccco1	inconclusive: 39.8 µM [quencher, single point]	
CC(C)c1ccc(/C=C2\SC(=O)N(CC(=O)NC3CCS(=O)(=O)C3)C2=O)cc1 (configuration not stated)	inconclusive: 17.8 µM [quencher, partial curve]	
